These are yes or no findings as the source states them, for the method shown. For part of these data: In cells and extracts the contact can be indirect. Some results given as binding are weak or reduced against the parent protein; the word gives no strength.
What was measured:
[1] = biological target: p65 fused to the Gal4 DBD (UniProt Q04206); assay: two-hybrid; mammalian two-hybrid in 293T cells; Gal4-luc reporter (100 ng), 350 ng of each fusion plasmid; luciferase activity 48 hours post transfection
[2] = biological target: pHA-p65 (amino acids 1–332, RHD) (UniProt Q04206); assay: co-IP; 293T cells co-transfected with Flag-DDX3 and HA-p65 (wt or deletion mutants); lysates immunoprecipitated with anti-HA antibody overnight at 4°C, protein A/G-agarose; blot with anti-Flag
HA-tagged wild type p65 = HA-tagged wild type p65 (UniProt Q04206); assay: as above
[3] = biological target: pHA-p65 (amino acids 299–551) (UniProt Q04206); assay: as above
[4] = biological target: endogenous DDX3 (human (endogenous in 293T)) (UniProt O00571); assay: co-IP; endogenous proteins; non-transfected 293T lysates immunoprecipitated with polyclonal anti-DDX3 antibody or IgG (control); blot with anti-p65
[5] = biological target: recombinant GST-tagged DDX3 (human) (UniProt O00571); assay: pull-down; GST pull-down; 50 ng GST-DDX3 or GST immobilised on glutathione resin beads at 4°C, 50 ng His-p65 added for 4 hours; washed with N-lysis buffer (0.15 mM NaCl, 1% NP-40, 50 mM Tris-HCl, pH 8.0, 5 mM EDTA); Western blot; both purified

By UniProt entry, the sequences of proteins in these tests, tags left out. Where a name states a change or a piece, a line headed by the entry shows the natural chain unless it says otherwise. Residues count along the entry.
UniProt Q04206: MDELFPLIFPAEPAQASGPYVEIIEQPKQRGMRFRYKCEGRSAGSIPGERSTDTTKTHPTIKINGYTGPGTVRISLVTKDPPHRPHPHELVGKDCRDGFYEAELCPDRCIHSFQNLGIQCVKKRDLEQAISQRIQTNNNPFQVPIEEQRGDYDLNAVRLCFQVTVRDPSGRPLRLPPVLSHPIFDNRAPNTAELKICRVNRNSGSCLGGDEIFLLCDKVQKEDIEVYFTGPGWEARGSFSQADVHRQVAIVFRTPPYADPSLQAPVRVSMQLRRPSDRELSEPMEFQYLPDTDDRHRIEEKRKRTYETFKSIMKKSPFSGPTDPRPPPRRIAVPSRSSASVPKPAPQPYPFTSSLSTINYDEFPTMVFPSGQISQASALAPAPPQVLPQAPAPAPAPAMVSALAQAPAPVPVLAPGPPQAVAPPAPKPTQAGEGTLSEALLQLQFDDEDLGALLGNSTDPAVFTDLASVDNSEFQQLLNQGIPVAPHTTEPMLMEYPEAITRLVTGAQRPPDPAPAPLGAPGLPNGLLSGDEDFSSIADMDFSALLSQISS
pHA-p65 (amino acids 1–332, RHD): residues 1-332 of Q04206
pHA-p65 (amino acids 299–551): residues 299-551 of Q04206
UniProt O00571: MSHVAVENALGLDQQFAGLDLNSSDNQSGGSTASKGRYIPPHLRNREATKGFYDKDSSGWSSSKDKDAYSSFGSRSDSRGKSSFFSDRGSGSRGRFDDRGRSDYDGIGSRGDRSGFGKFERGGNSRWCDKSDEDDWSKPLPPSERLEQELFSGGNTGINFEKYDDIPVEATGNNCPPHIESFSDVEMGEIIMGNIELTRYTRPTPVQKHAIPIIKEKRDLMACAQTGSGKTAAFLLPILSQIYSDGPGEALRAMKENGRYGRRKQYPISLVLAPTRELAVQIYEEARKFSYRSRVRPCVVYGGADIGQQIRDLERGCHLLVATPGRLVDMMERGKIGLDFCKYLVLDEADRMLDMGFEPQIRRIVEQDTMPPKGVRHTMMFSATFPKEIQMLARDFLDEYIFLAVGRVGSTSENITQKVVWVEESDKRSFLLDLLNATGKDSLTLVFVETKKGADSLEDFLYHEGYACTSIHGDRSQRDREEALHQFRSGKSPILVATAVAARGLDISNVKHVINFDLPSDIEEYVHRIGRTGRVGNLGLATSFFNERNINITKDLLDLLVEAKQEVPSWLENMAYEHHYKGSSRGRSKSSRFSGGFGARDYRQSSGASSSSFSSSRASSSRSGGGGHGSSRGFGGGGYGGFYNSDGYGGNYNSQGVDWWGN

DDX3 fused to the VP16 activation domain (from UniProt O00571 1-662)
binding [1]: binds

Flag-tagged DDX3 (from UniProt O00571 1-662)
binding [2]: binds | binding (HA-tagged wild type p65): binds | binding [3]: no binding

endogenous p65 (from UniProt Q04206 1-551)
binding [4]: binds

recombinant His-tagged p65 (from UniProt Q04206 1-551)
binding [5]: binds

Reference: paper PMC5063347
